From article PMC7875971, “Cavin1 intrinsically disordered domains are essential for fuzzy electrostatic interactions and caveola formation” (Nature Communications, 2021) come the findings set out here.

Chains of the proteins cited; added tags and fusions are not shown. Lines headed by an entry give the natural chain unless they say otherwise; changes in a name come on top. A line that says so, or that is headed by a name, gives the form on record, which may keep a tag or linker.
UniProt Q03135: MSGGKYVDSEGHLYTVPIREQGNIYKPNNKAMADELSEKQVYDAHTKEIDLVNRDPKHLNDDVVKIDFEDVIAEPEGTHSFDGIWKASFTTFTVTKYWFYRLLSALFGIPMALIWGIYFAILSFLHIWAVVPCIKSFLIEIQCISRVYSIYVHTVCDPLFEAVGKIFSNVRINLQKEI
mCherry-CAV1(1–100) M1 (Q03135, form named): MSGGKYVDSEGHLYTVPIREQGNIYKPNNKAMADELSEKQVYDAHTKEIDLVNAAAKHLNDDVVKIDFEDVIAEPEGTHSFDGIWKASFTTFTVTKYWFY

For experiment [1], the target named is T1, unlabelled purified Cavin1 (mouse) (UniProt O54724).
T1 sequence: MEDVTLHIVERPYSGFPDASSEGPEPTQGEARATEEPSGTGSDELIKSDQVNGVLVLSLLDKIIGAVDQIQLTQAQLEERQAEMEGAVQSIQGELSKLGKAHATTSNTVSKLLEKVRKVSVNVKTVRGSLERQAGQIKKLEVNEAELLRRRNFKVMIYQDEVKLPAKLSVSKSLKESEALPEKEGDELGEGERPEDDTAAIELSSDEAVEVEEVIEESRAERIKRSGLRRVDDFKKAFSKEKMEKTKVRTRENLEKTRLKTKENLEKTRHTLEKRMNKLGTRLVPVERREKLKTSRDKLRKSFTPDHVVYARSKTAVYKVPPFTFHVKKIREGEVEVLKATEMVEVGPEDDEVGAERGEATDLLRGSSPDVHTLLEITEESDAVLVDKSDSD
The experiment in a line: in vitro co-phase separation (LLPS) assay, fluorescence microscopy; purified CAV1 constructs mixed with purified Cavin1 constructs, dextran T-500 (1.25% w/v) added; recruitment of CAV1 to Cavin1 droplets; both purified.

The target in experiment [2] is T2, His-ubiquitin- and GFP-tagged full-length Cavin1 (recombinant GFP-Cavin1) (mouse) (UniProt O54724).
T2 sequence: T1 sequence
The experiment is described as above.

The target of experiment [3] is T3, His-ubiquitin- and GFP-tagged Cavin1-ΔDR3 (recombinant) (mouse) (UniProt O54724).
T3 sequence: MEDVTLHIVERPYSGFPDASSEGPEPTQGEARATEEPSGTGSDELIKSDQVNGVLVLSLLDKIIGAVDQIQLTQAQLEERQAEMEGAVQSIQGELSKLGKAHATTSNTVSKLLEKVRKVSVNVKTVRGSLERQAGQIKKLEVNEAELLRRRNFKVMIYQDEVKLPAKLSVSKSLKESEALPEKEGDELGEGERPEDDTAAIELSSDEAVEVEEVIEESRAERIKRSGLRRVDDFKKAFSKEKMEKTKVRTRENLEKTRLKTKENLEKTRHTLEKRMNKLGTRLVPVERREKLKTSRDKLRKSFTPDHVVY
Described as above.

The target in experiment [4] is T4, His-ubiquitin- and GFP-tagged Cavin1-ΔDR1 (recombinant) (mouse) (UniProt O54724).
T4 sequence: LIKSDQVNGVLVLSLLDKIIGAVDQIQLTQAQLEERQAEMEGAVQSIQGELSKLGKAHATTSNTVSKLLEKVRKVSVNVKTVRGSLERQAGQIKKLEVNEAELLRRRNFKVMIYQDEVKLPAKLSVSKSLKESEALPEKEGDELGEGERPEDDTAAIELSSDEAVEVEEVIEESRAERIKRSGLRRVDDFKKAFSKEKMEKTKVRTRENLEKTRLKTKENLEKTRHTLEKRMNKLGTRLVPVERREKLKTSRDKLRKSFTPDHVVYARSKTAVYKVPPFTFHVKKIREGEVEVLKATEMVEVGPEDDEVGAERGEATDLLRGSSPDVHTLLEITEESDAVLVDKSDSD
Described as above.

Experiment [5] has as its target GFP-tagged full-length Cavin1 expressed in MCF7 cells (mouse) (UniProt O54724). The experiment is described as follows: fluorescence correlation spectroscopy (FCS); GFP-tagged proteins in MCF7 cell lysates (cells lack cavins and caveolins); 25 mM Tris pH 7.4, 150 mM NaCl; diffusivity as read-out of self-association.
Experiment [6] deals with Caveolin1 (CAV1), endogenous in PC3 cells (human (endogenous in PC3)) (UniProt Q03135). The experiment is described as follows: proximity ligation; PC3 cells transfected with GFP-tagged Cavin1 constructs; PLA between GFP-tagged proteins and endogenous CAV1, dots per cell.
Experiment [7] concerns the target GFP-Cavin1(1–345) (mouse) (UniProt O54724). The experiment in a line: fluorescence correlation spectroscopy (FCS); GFP-tagged proteins in MCF7 cell lysates (cells lack cavins and caveolins); 25 mM Tris pH 7.4, 150 mM NaCl; diffusivity as read-out of self-association.
The target in experiment [8] is T3, His-ubiquitin- and GFP-tagged Cavin1-ΔDR3 (recombinant) (mouse). The experiment in a line: fluorescence correlation spectroscopy (FCS); purified ubiquitin- and GFP-tagged proteins at 0.1 µM in 20 mM HepesKOH pH 7.6 with 150 mM NaCl, compared with 500 mM NaCl; diffusivity as read-out of self-association; both purified.

No constants are given. Whether binding was seen depends on the method and setting. For part of these data: Binding seen in cells or lysates may run through a third protein. Some results given as binding are weak or reduced against the parent protein; the word gives no strength. For part of these data: Where a sequence is shown, tags or fusion partners need not be part of it.

With “full length CAV1 fused with maltose binding protein (MBP) and GFP-binding nanobody protein (GBP) (from UniProt Q03135 1-178)”, the binding result in experiment [1] is reported as “binds”.

Regarding “mCherry-CAV1(1–30) (from UniProt Q03135 1-30) (domain or fragment)”, the binding result in experiment [2] and in experiment [1] was “no binding” throughout.

With “mCherry-CAV1(1–80) (from UniProt Q03135 1-80) (domain or fragment)”, the binding result in experiment [2] and in experiment [1] was “no binding” in each case.

As for “mCherry-CAV1(1–100) (from UniProt Q03135 1-100) (domain or fragment)”, the binding result is “no binding” in experiment [3], “binds” in experiment [2], “binds” in experiment [4] and “binds” in experiment [1].

Take “mCherry-CAV1(1–100) M1 (from UniProt Q03135 1-100) (domain or fragment)”: the binding result in experiment [2] is “binds”.

As for “mCherry-CAV1(30–80) (from UniProt Q03135 30-80) (domain or fragment)”, the binding result in experiment [2] and in experiment [1] was “no binding” in each case.

B1: His-ubiquitin- and GFP-tagged full-length Cavin1 (recombinant GFP-Cavin1) (natural protein, mouse, UniProt O54724 1-392, looked up)
chain: T1 sequence
notes: Cavin1, mouse, residues 1-392; also called purified recombinant GFP-Cavin1; source: E. coli Rosetta 2 (DE3), purified (TALON, Superose 6 SEC); not shown: His6-ubiquitin, N-terminal, kept; GFP, C-terminal, kept
As for B1, the binding entry in experiment [5] is “binds”.

B2: GFP-Cavin1(1–345) (domain or fragment, UniProt O54724 1-345)
chain: MEDVTLHIVERPYSGFPDASSEGPEPTQGEARATEEPSGTGSDELIKSDQVNGVLVLSLLDKIIGAVDQIQLTQAQLEERQAEMEGAVQSIQGELSKLGKAHATTSNTVSKLLEKVRKVSVNVKTVRGSLERQAGQIKKLEVNEAELLRRRNFKVMIYQDEVKLPAKLSVSKSLKESEALPEKEGDELGEGERPEDDTAAIELSSDEAVEVEEVIEESRAERIKRSGLRRVDDFKKAFSKEKMEKTKVRTRENLEKTRLKTKENLEKTRHTLEKRMNKLGTRLVPVERREKLKTSRDKLRKSFTPDHVVYARSKTAVYKVPPFTFHVKKIREGEVEVLKATEMVE
Turning to B2, the binding result in experiment [6] and in experiment [7] was “binds” in each case.

B3: GFP-Cavin1-ΔDR3, Cavin1(1–310), expressed in mammalian cells (domain or fragment, UniProt O54724 1-310)
chain: T3 sequence
In the case of B3, in experiment [6], the binding result is recorded as “no binding”.

B4: His-ubiquitin- and GFP-tagged Cavin1-ΔDR3 (recombinant) (domain or fragment, UniProt O54724 1-310)
chain: T3 sequence
For B4, the binding entry in experiment [8] is “no binding (tested: 0.1 µM)”.

B5: GFP-Cavin1(1–330) (domain or fragment, UniProt O54724 1-330)
chain: MEDVTLHIVERPYSGFPDASSEGPEPTQGEARATEEPSGTGSDELIKSDQVNGVLVLSLLDKIIGAVDQIQLTQAQLEERQAEMEGAVQSIQGELSKLGKAHATTSNTVSKLLEKVRKVSVNVKTVRGSLERQAGQIKKLEVNEAELLRRRNFKVMIYQDEVKLPAKLSVSKSLKESEALPEKEGDELGEGERPEDDTAAIELSSDEAVEVEEVIEESRAERIKRSGLRRVDDFKKAFSKEKMEKTKVRTRENLEKTRLKTKENLEKTRHTLEKRMNKLGTRLVPVERREKLKTSRDKLRKSFTPDHVVYARSKTAVYKVPPFTFHVKKI
For the molecule B5, the binding entry in experiment [6] was “no binding”.
